The other results are listed elsewhere or left out. The list includes weakly bound sequences.
Molecular target: T1, MBP-FoxP3dN (UniProt Q99JB6)
T1 sequence: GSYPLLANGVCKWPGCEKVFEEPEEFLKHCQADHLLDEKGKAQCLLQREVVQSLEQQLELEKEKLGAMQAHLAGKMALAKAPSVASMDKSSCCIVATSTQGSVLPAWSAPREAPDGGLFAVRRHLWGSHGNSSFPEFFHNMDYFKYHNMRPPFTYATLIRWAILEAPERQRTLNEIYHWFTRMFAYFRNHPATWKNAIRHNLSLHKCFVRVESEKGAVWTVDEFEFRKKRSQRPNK
Assay: PD-seq (MBP pull-down with sequencing)
Conditions: 20 mM Tris-HCl pH 7.5, 100 mM NaCl, 1.5 mM MgCl2, 0.4 uM protein, 0.1 uM dsDNA library, 30 min, room temperature, amylose pull-down; high values mean tight binding; double strand, one strand shown

Row | Sequence | binding signal (RPM ratio (pull-down/input))
1 | GATGATTGTTCTCCCAGCTGATGAATTGCTCCCATCGAGTAAACAAATTTTCCTAATCTTTCTGTTCAAGCGCCATCTAC | 0.54
2 | GATGATTGTTCTCCCAGCTGATGAATTTGAGGATTCGAGTAAACAAATTTTCCTAATCTTTCTGTTCAAGCGCCATCTAC | 0.39
3 | GATGATTGTTCTCCCAGCTGATGAATTAGCGTCATCGAGTAAACAAATTTTCCTAATCTTTCTGTTCAAGCGCCATCTAC | 1.35
4 | GATGATTGTTCTCCCAGCTGATGAATTACCAAAATCGAGTAAACAAATTTTCCTAATCTTTCTGTTCAAGCGCCATCTAC | 0.282
5 | GATGATTGTTCTCCCAGCTGATGAATTTTTTAGTTCGAGTAAACAAATTTTCCTAATCTTTCTGTTCAAGCGCCATCTAC | 0.299
6 | GATGATTGTTCTCCCAGCTGATGAATTACCGTATTCGAGTAAACAAATTTTCCTAATCTTTCTGTTCAAGCGCCATCTAC | 1.12
7 | GATGATTGTTCTCCCAGCTGATGAATTTGTACATTCGAGTAAACAAATTTTCCTAATCTTTCTGTTCAAGCGCCATCTAC | 2.32
8 | GATGATTGTTCTCCCAGCTGATGAATTTATTGAATCGAGTAAACAAATTTTCCTAATCTTTCTGTTCAAGCGCCATCTAC | 0.822
9 | GATGATTGTTCTCCCAGCTGATGAATTCAACGTTTCGAGTAAACAAATTTTCCTAATCTTTCTGTTCAAGCGCCATCTAC | 0.532
10 | GATGATTGTTCTCCCAGCTGATGAATTGGATTCCTCGAGTAAACAAATTTTCCTAATCTTTCTGTTCAAGCGCCATCTAC | 0.504
11 | GATGATTGTTCTCCCAGCTGATGAATTTTCAGTTTCGAGTAAACAAATTTTCCTAATCTTTCTGTTCAAGCGCCATCTAC | 0.271
12 | GATGATTGTTCTCCCAGCTGATGAATTCCGATATTCGAGTAAACAAATTTTCCTAATCTTTCTGTTCAAGCGCCATCTAC | 1.03
13 | GATGATTGTTCTCCCAGCTGATGAATTTTAGCAATCGAGTAAACAAATTTTCCTAATCTTTCTGTTCAAGCGCCATCTAC | 2.86
14 | GATGATTGTTCTCCCAGCTGATGAATTGGTCCCTTCGAGTAAACAAATTTTCCTAATCTTTCTGTTCAAGCGCCATCTAC | 0.426
15 | GATGATTGTTCTCCCAGCTGATGAATTTGCGCACTCGAGTAAACAAATTTTCCTAATCTTTCTGTTCAAGCGCCATCTAC | 0.87
16 | GATGATTGTTCTCCCAGCTGATGAATTCATGCTCTCGAGTAAACAAATTTTCCTAATCTTTCTGTTCAAGCGCCATCTAC | 0.667
17 | GATGATTGTTCTCCCAGCTGATGAATTAGCGCTCTCGAGTAAACAAATTTTCCTAATCTTTCTGTTCAAGCGCCATCTAC | 0.516
18 | GATGATTGTTCTCCCAGCTGATGAATTTGACCAGTCGAGTAAACAAATTTTCCTAATCTTTCTGTTCAAGCGCCATCTAC | 0.226
19 | GATGATTGTTCTCCCAGCTGATGAATTACAATGGTCGAGTAAACAAATTTTCCTAATCTTTCTGTTCAAGCGCCATCTAC | 0.574
20 | GATGATTGTTCTCCCAGCTGATGAATTTGCTATGTCGAGTAAACAAATTTTCCTAATCTTTCTGTTCAAGCGCCATCTAC | 4.82
21 | GATGATTGTTCTCCCAGCTGATGAATTTCGAGAATCGAGTAAACAAATTTTCCTAATCTTTCTGTTCAAGCGCCATCTAC | 0.202

Row | Sequence | binding signal (RPM ratio (pull-down/input))
22 | GATGATTGTTCTCCCAGCTGATGAATTGCGAGTATCGAGTAAACAAATTTTCCTAATCTTTCTGTTCAAGCGCCATCTAC | 1.17
23 | GATGATTGTTCTCCCAGCTGATGAATTTTAGAACTCGAGTAAACAAATTTTCCTAATCTTTCTGTTCAAGCGCCATCTAC | 0.193
24 | GATGATTGTTCTCCCAGCTGATGAATTGGAATCTTCGAGTAAACAAATTTTCCTAATCTTTCTGTTCAAGCGCCATCTAC | 0.426
25 | GATGATTGTTCTCCCAGCTGATGAATTTATTAGCTCGAGTAAACAAATTTTCCTAATCTTTCTGTTCAAGCGCCATCTAC | 4.35
26 | GATGATTGTTCTCCCAGCTGATGAATTACACCCATCGAGTAAACAAATTTTCCTAATCTTTCTGTTCAAGCGCCATCTAC | 0.516
27 | GATGATTGTTCTCCCAGCTGATGAATTAGAACATTCGAGTAAACAAATTTTCCTAATCTTTCTGTTCAAGCGCCATCTAC | 0.444
28 | GATGATTGTTCTCCCAGCTGATGAATTGCAATGCTCGAGTAAACAAATTTTCCTAATCTTTCTGTTCAAGCGCCATCTAC | 1.59
29 | GATGATTGTTCTCCCAGCTGATGAATTTAACGATTCGAGTAAACAAATTTTCCTAATCTTTCTGTTCAAGCGCCATCTAC | 0.297
30 | GATGATTGTTCTCCCAGCTGATGAATTGAGGGATTCGAGTAAACAAATTTTCCTAATCTTTCTGTTCAAGCGCCATCTAC | 0.519
31 | GATGATTGTTCTCCCAGCTGATGAATTAGGCCGTTCGAGTAAACAAATTTTCCTAATCTTTCTGTTCAAGCGCCATCTAC | 0.92
32 | GATGATTGTTCTCCCAGCTGATGAATTTGCAAGGTCGAGTAAACAAATTTTCCTAATCTTTCTGTTCAAGCGCCATCTAC | 0.639
33 | GATGATTGTTCTCCCAGCTGATGAATTCCACTCGTCGAGTAAACAAATTTTCCTAATCTTTCTGTTCAAGCGCCATCTAC | 0.436
34 | GATGATTGTTCTCCCAGCTGATGAATTGCCCTGATCGAGTAAACAAATTTTCCTAATCTTTCTGTTCAAGCGCCATCTAC | 0.367
35 | GATGATTGTTCTCCCAGCTGATGAATTGACGAGATCGAGTAAACAAATTTTCCTAATCTTTCTGTTCAAGCGCCATCTAC | 0.247
36 | GATGATTGTTCTCCCAGCTGATGAATTTCAGGCTTCGAGTAAACAAATTTTCCTAATCTTTCTGTTCAAGCGCCATCTAC | 0.301
37 | GATGATTGTTCTCCCAGCTGATGAATTATTAGACTCGAGTAAACAAATTTTCCTAATCTTTCTGTTCAAGCGCCATCTAC | 0.335
38 | GATGATTGTTCTCCCAGCTGATGAATTCGACGTCTCGAGTAAACAAATTTTCCTAATCTTTCTGTTCAAGCGCCATCTAC | 0.735
39 | GATGATTGTTCTCCCAGCTGATGAATTGTCGTCGTCGAGTAAACAAATTTTCCTAATCTTTCTGTTCAAGCGCCATCTAC | 0.609
40 | GATGATTGTTCTCCCAGCTGATGAATTGGCTCTGTCGAGTAAACAAATTTTCCTAATCTTTCTGTTCAAGCGCCATCTAC | 0.28
41 | GATGATTGTTCTCCCAGCTGATGAATTTCTGGGCTCGAGTAAACAAATTTTCCTAATCTTTCTGTTCAAGCGCCATCTAC | 0.194
42 | GATGATTGTTCTCCCAGCTGATGAATTGGCTAGTTCGAGTAAACAAATTTTCCTAATCTTTCTGTTCAAGCGCCATCTAC | 0.641

Row | Sequence | binding signal (RPM ratio (pull-down/input))
43 | GATGATTGTTCTCCCAGCTGATGAATTACCCTCCTCGAGTAAACAAATTTTCCTAATCTTTCTGTTCAAGCGCCATCTAC | 0.3
44 | GATGATTGTTCTCCCAGCTGATGAATTTACCGGTTCGAGTAAACAAATTTTCCTAATCTTTCTGTTCAAGCGCCATCTAC | 0.394
45 | GATGATTGTTCTCCCAGCTGATGAATTATACTCCTCGAGTAAACAAATTTTCCTAATCTTTCTGTTCAAGCGCCATCTAC | 0.429
46 | GATGATTGTTCTCCCAGCTGATGAATTAACATAGTCGAGTAAACAAATTTTCCTAATCTTTCTGTTCAAGCGCCATCTAC | 0.373
47 | GATGATTGTTCTCCCAGCTGATGAATTCGCACATTCGAGTAAACAAATTTTCCTAATCTTTCTGTTCAAGCGCCATCTAC | 0.519
48 | GATGATTGTTCTCCCAGCTGATGAATTAGGATGATCGAGTAAACAAATTTTCCTAATCTTTCTGTTCAAGCGCCATCTAC | 0.444
49 | GATGATTGTTCTCCCAGCTGATGAATTGACAATATCGAGTAAACAAATTTTCCTAATCTTTCTGTTCAAGCGCCATCTAC | 0.943
50 | GATGATTGTTCTCCCAGCTGATGAATTGAGCCTTTCGAGTAAACAAATTTTCCTAATCTTTCTGTTCAAGCGCCATCTAC | 4.46
51 | GATGATTGTTCTCCCAGCTGATGAATTCTGAGAGTCGAGTAAACAAATTTTCCTAATCTTTCTGTTCAAGCGCCATCTAC | 0.335
52 | GATGATTGTTCTCCCAGCTGATGAATTTCAGTCTTCGAGTAAACAAATTTTCCTAATCTTTCTGTTCAAGCGCCATCTAC | 0.375
53 | GATGATTGTTCTCCCAGCTGATGAATTTACAGGATCGAGTAAACAAATTTTCCTAATCTTTCTGTTCAAGCGCCATCTAC | 0.329
54 | GATGATTGTTCTCCCAGCTGATGAATTAGGACCCTCGAGTAAACAAATTTTCCTAATCTTTCTGTTCAAGCGCCATCTAC | 0.409
55 | GATGATTGTTCTCCCAGCTGATGAATTAACCTTATCGAGTAAACAAATTTTCCTAATCTTTCTGTTCAAGCGCCATCTAC | 0.312
56 | GATGATTGTTCTCCCAGCTGATGAATTCACCATATCGAGTAAACAAATTTTCCTAATCTTTCTGTTCAAGCGCCATCTAC | 0.421
57 | GATGATTGTTCTCCCAGCTGATGAATTCTAAGCGTCGAGTAAACAAATTTTCCTAATCTTTCTGTTCAAGCGCCATCTAC | 0.403
58 | GATGATTGTTCTCCCAGCTGATGAATTAAGGAACTCGAGTAAACAAATTTTCCTAATCTTTCTGTTCAAGCGCCATCTAC | 0.231
59 | GATGATTGTTCTCCCAGCTGATGAATTGGTCGGGTCGAGTAAACAAATTTTCCTAATCTTTCTGTTCAAGCGCCATCTAC | 0.326
60 | GATGATTGTTCTCCCAGCTGATGAATTCCAACGGTCGAGTAAACAAATTTTCCTAATCTTTCTGTTCAAGCGCCATCTAC | 0.235
61 | GATGATTGTTCTCCCAGCTGATGAATTAATTCACTCGAGTAAACAAATTTTCCTAATCTTTCTGTTCAAGCGCCATCTAC | 0.424
62 | GATGATTGTTCTCCCAGCTGATGAATTAGGGTTCTCGAGTAAACAAATTTTCCTAATCTTTCTGTTCAAGCGCCATCTAC | 0.853
63 | GATGATTGTTCTCCCAGCTGATGAATTCCAGAGCTCGAGTAAACAAATTTTCCTAATCTTTCTGTTCAAGCGCCATCTAC | 0.185

— publication PMC12820563
